The supplement of paper PMC9334596
“And” between values parts separate entries of the source, which are not always exact repeats. Equal entries are not always repeated. Over roughly 5,300 compounds, “PER2::LUC luminescence relative to vehicle control” has its median near 0.96; the highest 2% begin near 1.3. This is one part of the list.

System: mPer2Luc MEF
Experiment: PER2::LUC luminescence relative to vehicle control (fold of vehicle); higher = higher PER2::LUC reporter signal
Conditions: 10 µM
Outline: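 Compounds from commercial libraries were added at 10 μM to 384-well plates seeded 48 h earlier with ~3000 mPer2Luc mouse embryonic fibroblasts per well. The cells were kept in DMEM with 10% FBS at 37 °C and 5% CO2. Luminescence was read with ONE-Glo 24 h and 30 h after treatment, then an alamarBlue viability assay was run. Values are PER2::LUC luminescence relative to vehicle control, as fold change.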

Compound: CN1CCc2cccc(Cl)c2CC1
- PER2::LUC luminescence (time after treatment 24 h): 0.982
- PER2::LUC luminescence (time after treatment 30 h): 0.838

Compound: COC(=O)[C@@H](N)CCCNC(=N)N[N+](=O)[O-]
- PER2::LUC luminescence (time after treatment 24 h): 0.881
- PER2::LUC luminescence (time after treatment 30 h): 0.976

Compound: COc1cc(=O)oc(/C=C/C=C/C=C/C(C)=C/[C@@]2(C)O[C@H](C)[C@](C)(O)[C@H]2O)c1C
- PER2::LUC luminescence (time after treatment 24 h): 0.952
- PER2::LUC luminescence (time after treatment 30 h): 0.913

Compound: CN[C@@H](C)[C@H](O)c1ccccc1
- PER2::LUC luminescence (time after treatment 24 h): 1.2
- PER2::LUC luminescence (time after treatment 30 h): 0.938

Compound: CC[C@]1(O)CC[C@H]2[C@@H]3CCC4=CCCC[C@@H]4[C@H]3CC[C@@]21C
- PER2::LUC luminescence (time after treatment 24 h): 1.02
- PER2::LUC luminescence (time after treatment 30 h): 1.05

Compound: CO[C@H]1[C@@H](O)[C@@H](C)O[C@H](O[C@H]2[C@H](Oc3cccc4c(O)c5c(=O)oc6ccc(C)c7c(=O)oc(c34)c5c67)O[C@H](C)[C@H](O)[C@@H]2O)[C@@H]1O
- PER2::LUC luminescence (time after treatment 24 h): 1.11
- PER2::LUC luminescence (time after treatment 30 h): 1.04

Compound: CC(=O)O[C@H]1C[C@@H]2CC[C@@H]3[C@H](CC[C@@]4(C)[C@H]3C[C@H]([N+]3(C)CCCCC3)[C@@H]4OC(C)=O)[C@@]2(C)C[C@@H]1[N+]1(C)CCCCC1
- PER2::LUC luminescence (time after treatment 24 h): 0.857 and 1.06 and 0.934
- PER2::LUC luminescence (time after treatment 30 h): 1.25 and 0.954 and 0.971

Compound: C[C@]12CC[C@H](O)C[C@H]1CC[C@@H]1[C@@H]2CC[C@]2(C)[C@@H](C3=CC(=O)OC3)[C@@H](O)C[C@]12O
- PER2::LUC luminescence (time after treatment 24 h): 1.08
- PER2::LUC luminescence (time after treatment 30 h): 1.1

Compound: C[C@]12CCC(=O)C[C@@H]1CC[C@@H]1[C@@H]2CC[C@]2(C)C(=O)CC[C@@H]12
- PER2::LUC luminescence (time after treatment 24 h): 0.841
- PER2::LUC luminescence (time after treatment 30 h): 0.755

Compound: COc1cccc(NCC(F)Cn2c3ccc(Br)cc3c3cc(Br)ccc32)c1 (configuration not stated)
- PER2::LUC luminescence (time after treatment 24 h): 1.02
- PER2::LUC luminescence (time after treatment 30 h): 1.08

Compound: c1ccc2c(c1)Nc1ccccc1S2
- PER2::LUC luminescence (time after treatment 24 h): 0.897
- PER2::LUC luminescence (time after treatment 30 h): 1.1

Compound: C[C@]12CC[C@H]3[C@@H](CCC4=CC(=O)CC[C@@]43C)[C@@H]1CC[C@@H]2O
- PER2::LUC luminescence (time after treatment 24 h): 0.653
- PER2::LUC luminescence (time after treatment 30 h): 0.733

Compound: N=C(NCCC[C@H](N)C(=O)O)N[N+](=O)[O-]
- PER2::LUC luminescence (time after treatment 24 h): 1.04
- PER2::LUC luminescence (time after treatment 30 h): 1.1

Compound: Cc1ccc(/N=C/N(C)/C=N/c2ccc(C)cc2C)c(C)c1
- PER2::LUC luminescence (time after treatment 24 h): 1.19
- PER2::LUC luminescence (time after treatment 30 h): 0.869

Compound: CCCN(CCC)C1Cc2cc(OC)c(OC)cc2C1
- PER2::LUC luminescence (time after treatment 24 h): 1.04
- PER2::LUC luminescence (time after treatment 30 h): 0.998

Compound: O=c1c2ccccc2[se]n1-c1ccccc1
- PER2::LUC luminescence (time after treatment 24 h): 1.1
- PER2::LUC luminescence (time after treatment 30 h): 0.901

Compound: CC(C)NC(C)Cc1ccc(I)cc1 (configuration not stated)
- PER2::LUC luminescence (time after treatment 24 h): 1.06
- PER2::LUC luminescence (time after treatment 30 h): 0.868

Compound: O=C(O)C(=O)c1cn(Cc2ccccc2)c2ccc(-c3ccc(OC(F)(F)F)cc3)cc12
- PER2::LUC luminescence (time after treatment 24 h): 0.98
- PER2::LUC luminescence (time after treatment 30 h): 0.882

Compound: O=c1ccc2cc(O[C@@H]3O[C@H](CO)[C@@H](O)[C@H](O)[C@H]3O)c(O)cc2o1
- PER2::LUC luminescence (time after treatment 24 h): 0.908
- PER2::LUC luminescence (time after treatment 30 h): 0.906

Compound: COc1cc2c3cc1Oc1c(OC)c(OC)cc4c1[C@@H](Cc1cccc(c1)Oc1ccc(c(O)c1)C[C@@H]3N(C)CC2)N(C)CC4
- PER2::LUC luminescence (time after treatment 24 h): 0.505
- PER2::LUC luminescence (time after treatment 30 h): 0.563

Compound: CN1CCCCC1Cn1cc(C(=O)c2cc([N+](=O)[O-])ccc2I)c2ccccc21 (configuration not stated)
- PER2::LUC luminescence (time after treatment 24 h): 0.814
- PER2::LUC luminescence (time after treatment 30 h): 0.666

Compound: O=C1c2ccccc2-c2cccc3cccc1c23
- PER2::LUC luminescence (time after treatment 24 h): 0.822
- PER2::LUC luminescence (time after treatment 30 h): 0.749

Compound: NCC(O)c1ccc(O)cc1 (configuration not stated)
- PER2::LUC luminescence (time after treatment 24 h): 0.964
- PER2::LUC luminescence (time after treatment 30 h): 0.943

Compound: COC(=O)N1CCN(C(=O)Cc2ccc(Cl)c(Cl)c2)C(CN2CCCC2)C1 (configuration not stated)
- PER2::LUC luminescence (time after treatment 24 h): 0.947 and 0.914
- PER2::LUC luminescence (time after treatment 30 h): 0.942 and 0.885

Compound: CNCC/C=C/c1cccnc1
- PER2::LUC luminescence (time after treatment 24 h): 0.935
- PER2::LUC luminescence (time after treatment 30 h): 0.963

Compound: O=C(O)CCCO
- PER2::LUC luminescence (time after treatment 24 h): 1.02
- PER2::LUC luminescence (time after treatment 30 h): 1

Compound: NCc1cccnc1
- PER2::LUC luminescence (time after treatment 24 h): 1.12
- PER2::LUC luminescence (time after treatment 30 h): 1.01

Compound: C=C/C=C\CC1=C(C)[C@@H](OC(=O)[C@@H]2[C@@H](/C=C(\C)C(=O)OC)C2(C)C)CC1=O.C=C/C=C\CC1=C(C)[C@@H](OC(=O)[C@@H]2[C@@H](C=C(C)C)C2(C)C)CC1=O
- PER2::LUC luminescence (time after treatment 24 h): 1.06
- PER2::LUC luminescence (time after treatment 30 h): 0.939

Compound: N[C@]1(C(=O)O)CC[C@H](C(=O)O)C1 (racemic)
- PER2::LUC luminescence (time after treatment 24 h): 1.01
- PER2::LUC luminescence (time after treatment 30 h): 0.888

Compound: CC(NC(C)(C)C)C(=O)c1cccc(Cl)c1 (configuration not stated)
- PER2::LUC luminescence (time after treatment 24 h): 0.974 and 0.931 and 0.592
- PER2::LUC luminescence (time after treatment 30 h): 0.991 and 0.866 and 0.879

Compound: Oc1ccc2c3c1O[C@H]1c4[nH]c5ccccc5c4C[C@@]4(O)[C@@H](C2)N(CC2CC2)CC[C@]314
- PER2::LUC luminescence (time after treatment 24 h): 0.774 and 0.426
- PER2::LUC luminescence (time after treatment 30 h): 0.762 and 0.53

Compound: CN1CCC2=C(C1)c1ccccc1Cc1ccccc12
- PER2::LUC luminescence (time after treatment 24 h): 0.931
- PER2::LUC luminescence (time after treatment 30 h): 0.88

Compound: Cc1cc(C)cc(C(=O)OC2C[C@H]3CC[C@@H](C2)N3C)c1 (some centres not stated)
- PER2::LUC luminescence (time after treatment 24 h): 0.722
- PER2::LUC luminescence (time after treatment 30 h): 0.783

Compound: NCC(CC(=O)O)c1ccc(Cl)cc1 (configuration not stated)
- PER2::LUC luminescence (time after treatment 24 h): 1.01
- PER2::LUC luminescence (time after treatment 30 h): 0.772

Compound: CC(=O)O[C@H]1CC[C@H]2[C@@H]3CCC4=CC(=O)CCC4=C3C=C[C@]12C
- PER2::LUC luminescence (time after treatment 24 h): 0.987
- PER2::LUC luminescence (time after treatment 30 h): 0.941

Compound: CN1CC[C@@]2(C)c3cc(O)ccc3N(C)C12 (single isomer, unassigned; (-))
- PER2::LUC luminescence (time after treatment 24 h): 1
- PER2::LUC luminescence (time after treatment 30 h): 0.964

Compound: CC(C)[C@]12O[C@H]1[C@@H]1O[C@]13[C@]1(O[C@H]1C[C@H]1C4=C(CC[C@@]13C)C(=O)OC4)[C@@H]2O
- PER2::LUC luminescence (time after treatment 24 h): 0.308
- PER2::LUC luminescence (time after treatment 30 h): 0.44

Compound: CCOC(=O)CC(SP(=S)(OC)OC)C(=O)OCC (configuration not stated)
- PER2::LUC luminescence (time after treatment 24 h): 0.996
- PER2::LUC luminescence (time after treatment 30 h): 1.19

Compound: CC(=O)[C@H]1CC[C@H]2[C@@H]3CC[C@H]4C[C@H](O)CC[C@]4(C)[C@H]3CC[C@]12C
- PER2::LUC luminescence (time after treatment 24 h): 0.995 and 0.868 and 0.864
- PER2::LUC luminescence (time after treatment 30 h): 1.07 and 1.05 and 0.983

Compound: CC(C)(C)c1cc(C=C(C#N)C#N)cc(Br)c1O
- PER2::LUC luminescence (time after treatment 24 h): 0.972
- PER2::LUC luminescence (time after treatment 30 h): 0.857

Compound: C=CCSSCC=C
- PER2::LUC luminescence (time after treatment 24 h): 1.03
- PER2::LUC luminescence (time after treatment 30 h): 0.94
